Laboratory results published in PMC7819943, “Rice protein-binding microarrays: a tool to detect cis-acting elements near promoter regions in rice”.
The list shows a part of the results.

Biological target: T1, OsWOX13 (Oryza sativa, UniProt Q5QMM3 1-267)
T1 sequence: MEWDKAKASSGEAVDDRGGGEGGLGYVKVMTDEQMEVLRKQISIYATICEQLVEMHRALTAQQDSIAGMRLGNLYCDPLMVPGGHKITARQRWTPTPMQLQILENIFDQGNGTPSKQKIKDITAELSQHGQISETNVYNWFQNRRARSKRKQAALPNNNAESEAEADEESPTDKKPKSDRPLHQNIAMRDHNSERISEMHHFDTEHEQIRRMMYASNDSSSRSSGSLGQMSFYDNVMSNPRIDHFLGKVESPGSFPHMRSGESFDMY
Experiment: protein-binding microarray (RPBM); PBS, 2% BSA, 51.3 ng/ul salmon testes DNA, 50 uM zinc acetate, 200 nM TF, 25 C, 1 h; high values mean tight binding
Conditions: protein: recombinant; tags: N-terminal polyhistidine and DsRed monomer fusion (pET32a); label: CyDye5-dUTP incorporated in the synthesized complementary strand; 3' TTTTT single-stranded linker to array surface; dsDNA, one strand shown
Procedure, shortened: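 Polyhistidine-tagged DsRed fusions of transcription factors, joined at the N-terminus, were expressed in E. coli BL21-CodonPlus and isolated on Ni–NTA. They were incubated at 200 nM for 1 h at 25 °C on a custom Agilent array, double-stranded and BSA-blocked, in PBS with 2% BSA, salmon testes DNA and 50 µM zinc acetate. The binding signal is per-feature fluorescence intensity (arbitrary units) read on an Axon 4000B scanner after washing.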

Which binding signal does the source give for “GAAAATTGAATATAAATTCCCTGAGTTTGCCGATAAGTTCCGGAGTCACCTAGTGCAG” here?
Its binding signal is 21800 fluorescence intensity (a.u.).

How did the binding signal turn out when “CCGTGATTAGCGACATTGCTGTGTGCAACGTTTGTTCCTTCGGAGTCACCTAGTGCAG” was run?
The binding signal was 37600 fluorescence intensity (a.u.).

How did the binding signal turn out when “CATGTAATAGATGGGATGGGCTTGAACACACATGTAATGTCGGAGTCACCTAGTGCAG” was run?
Its binding signal is 8090 fluorescence intensity (a.u.).

How did the binding signal turn out when “CTATAATTTTGTTAGACTTATACCATAGTATGTGGTGTTTCGGAGTCACCTAGTGCAG” was run?
Its binding signal is 20900 fluorescence intensity (a.u.).

“CCAAGCACTAATCACGATTAGCCTTCTGACTAATCACACTCGGAGTCACCTAGTGCAG” was tested. Which binding signal did it give?
The binding signal was 9300 fluorescence intensity (a.u.).

With “GTAATGTTGACAGCGTGGATAACGACAAACAATTATTCGGCGGAGTCACCTAGTGCAG” as the sequence, how does the binding signal read?
The binding signal was 7350 fluorescence intensity (a.u.).

With “GTCCATGATTAGCCGTAAGTGCTACAGTAACCCACATGTACGGAGTCACCTAGTGCAG” as the sequence, how does the binding signal read?
Its binding signal is 19100 fluorescence intensity (a.u.).

Which binding signal does the source give for “GCGTCCATCTAATCTAATCTAACCACCCTGCACGAATCGCCGGAGTCACCTAGTGCAG” here?
The binding signal was 8750 fluorescence intensity (a.u.).

“GATCAAATAATATTTGATTTAAGACAAACCCAGACAGCTACGGAGTCACCTAGTGCAG” was tested. Which binding signal did it give?
Its binding signal is 3520 fluorescence intensity (a.u.).

How did the binding signal turn out when “GTGGGTAATTTGTTGCAAAAGAATATTTCAATTCACTGCACGGAGTCACCTAGTGCAG” was run?
The binding signal was 13400 fluorescence intensity (a.u.).

Which binding signal does the source give for “TTTGACCGGCTCATCTATCTCGCCTTTTAACTAAACACACCGGAGTCACCTAGTGCAG” here?
Its binding signal is 3230 fluorescence intensity (a.u.).

With “TATATATATATCACCAATCAAACCTGGCCAAACTTGCTTGCGGAGTCACCTAGTGCAG” as the sequence, how does the binding signal read?
The binding signal was 4610 fluorescence intensity (a.u.).

Which binding signal does the source give for “CTCTAAAAGAGCTAATTAGAATAGAGTTAATGACGGTAGTCGGAGTCACCTAGTGCAG” here?
Its binding signal is 9300 fluorescence intensity (a.u.).

Which binding signal does the source give for “TAAATTTCATGTTATAAATTATATATGAATATAAGGGTTTCGGAGTCACCTAGTGCAG” here?
The binding signal was 3690 fluorescence intensity (a.u.).

“TCAATTCGTCATATAATAATTGCTTACTATACTATTAGTACGGAGTCACCTAGTGCAG” was tested. Which binding signal did it give?
Its binding signal is 3550 fluorescence intensity (a.u.).

For “AGCTAGATTGTTGTACCCATTACTTGAGTGTAAGCTATTACGGAGTCACCTAGTGCAG”, which binding signal is on record?
The binding signal was 8150 fluorescence intensity (a.u.).

For “CAGATATGCTTAATTGATGGCCAGATGAACAGCTAATAGTCGGAGTCACCTAGTGCAG”, which binding signal is on record?
Its binding signal is 47700 fluorescence intensity (a.u.).

“TTTGATTGTTGTGCCGTTTGGCTGAACCTGTACTGGTATGCGGAGTCACCTAGTGCAG” was tested. Which binding signal did it give?
Its binding signal is 44100 fluorescence intensity (a.u.).

Which binding signal does the source give for “ACCTAACACAAATAATGTGACAGCAAGTGGTTAGCAATAACGGAGTCACCTAGTGCAG” here?
Its binding signal is 3310 fluorescence intensity (a.u.).

With “GATGCCGCAATTGACTGATGAACTTGCGGCGCAGGCGCAGCGGAGTCACCTAGTGCAG” as the sequence, how does the binding signal read?
The binding signal was 11600 fluorescence intensity (a.u.).

For “TATCCAATTTGATCATATCTGGAATCATATGCAGTCAGCACGGAGTCACCTAGTGCAG”, which binding signal is on record?
The binding signal was 4020 fluorescence intensity (a.u.).

“GAGCTTGATTGCCAAAACACAAACTCACTCGCGGCTGCAACGGAGTCACCTAGTGCAG” was tested. Which binding signal did it give?
The binding signal was 39100 fluorescence intensity (a.u.).

How did the binding signal turn out when “ATTGACATTTTGTTGACAATACCATTATACACTCACATTTCGGAGTCACCTAGTGCAG” was run?
The binding signal was 3340 fluorescence intensity (a.u.).

Which binding signal does the source give for “ACGGTAATTAACGTTGATTACCATAATTAGCGGCGCATTGCGGAGTCACCTAGTGCAG” here?
The binding signal was 65200 fluorescence intensity (a.u.).

“GTTTAACTTGCTAAATTAAATGGAGAGTTGACCAAATAGACGGAGTCACCTAGTGCAG” was tested. Which binding signal did it give?
The binding signal was 4390 fluorescence intensity (a.u.).

“CAAATCAATAATTAAATATATTTTCATAATAAATTTGTCTCGGAGTCACCTAGTGCAG” was tested. Which binding signal did it give?
The binding signal was 25900 fluorescence intensity (a.u.).

With “ATAGTTAATTAATGATGCATTAGAAGCCTTAGTAGATTGGCGGAGTCACCTAGTGCAG” as the sequence, how does the binding signal read?
Its binding signal is 38600 fluorescence intensity (a.u.).

How did the binding signal turn out when “TTTTAATTTCATAAATATTCAACAATTAAAACTAGATTTGCGGAGTCACCTAGTGCAG” was run?
The binding signal was 7010 fluorescence intensity (a.u.).

Which binding signal does the source give for “TTTAGTTAATTAGTAGTTGTTAATTATCTTCACTAACCTTCGGAGTCACCTAGTGCAG” here?
Its binding signal is 28800 fluorescence intensity (a.u.).

“CGCCAATCATGCTATGATTATTTTACTGGGCATAATACTACGGAGTCACCTAGTGCAG” was tested. Which binding signal did it give?
Its binding signal is 36300 fluorescence intensity (a.u.).

How did the binding signal turn out when “ACTCCTGATCAATTAATCATCTCTCAGACTCAGTTTACAACGGAGTCACCTAGTGCAG” was run?
Its binding signal is 21900 fluorescence intensity (a.u.).

For “TGGGTTATTTCGTTGATTGCCGAGAATTCGAGCATGCGATCGGAGTCACCTAGTGCAG”, which binding signal is on record?
The binding signal was 15000 fluorescence intensity (a.u.).

Which binding signal does the source give for “CTATTAAATTGGCTAGAGATGAATTGGAGCTAGTAGTGGGCGGAGTCACCTAGTGCAG” here?
The binding signal was 43200 fluorescence intensity (a.u.).

“CGGTAAATTATACTTATATGAAATAGTTTGAAAGGGTTAACGGAGTCACCTAGTGCAG” was tested. Which binding signal did it give?
The binding signal was 7120 fluorescence intensity (a.u.).

With “GTAATTGATTTTCTGGCGCGATTAAGAGCTTGGTATATAGCGGAGTCACCTAGTGCAG” as the sequence, how does the binding signal read?
The binding signal was 59200 fluorescence intensity (a.u.).

How did the binding signal turn out when “AAAATAGATGAACTAAATGCCCCTCCGTTGAGCAGTTCTGCGGAGTCACCTAGTGCAG” was run?
Its binding signal is 6740 fluorescence intensity (a.u.).

For “TGATGAGACAGGCATGGTTGATTGATGTGTGGACAAAGCTCGGAGTCACCTAGTGCAG”, which binding signal is on record?
The binding signal was 31000 fluorescence intensity (a.u.).

“GCATATTTTGAGATTGACGAAGTCACCACAGGCGCCTCGCCGGAGTCACCTAGTGCAG” was tested. Which binding signal did it give?
The binding signal was 12400 fluorescence intensity (a.u.).

With “TGCTTGATTGCAGCTTGGACTTTGGAGTACGAATTGAAAGCGGAGTCACCTAGTGCAG” as the sequence, how does the binding signal read?
Its binding signal is 28100 fluorescence intensity (a.u.).

With “GCTTTGACTGCTCATGCGGTTACTCTCCACTCGTGAGGGGCGGAGTCACCTAGTGCAG” as the sequence, how does the binding signal read?
The binding signal was 5000 fluorescence intensity (a.u.).

With “TGCTGATGGAATGCCGTGGAAATTCATTCCAACACAGAGACGGAGTCACCTAGTGCAG” as the sequence, how does the binding signal read?
Its binding signal is 12200 fluorescence intensity (a.u.).

“ATGTAATTTACGTGAGTCTGTACACATGTTTCCTGCATTTCGGAGTCACCTAGTGCAG” was tested. Which binding signal did it give?
Its binding signal is 9360 fluorescence intensity (a.u.).
